Test results from paper PMC11149917, “Translational and Therapeutic Evaluation of RAS-GTP Inhibition by RMC-6236 in RAS-Driven Cancers” (Cancer Discovery, 2024).
The source gives many values for each of these; only a part stands here.

Tested on: PRISM panel of 845 cancer cell lines
Experiment: PRISM assay
Assay type: cell-based, human
Procedure: The PRISM cell set comprised 845 cell lines representing more than 45 lineages (see Supplementary Table S1 for cell line information), which largely overlapped with the Cancer Cell Line Encyclopedia; https://portals.broadinstitute.org/ccle). Cell lines were grown in RPMI without phenol red and supplemented with 10% or 20% FBS for adherent and suspended lines, respectively. Parental cell lines were stably infected with a unique 24-nucleotide DNA barcode via lentiviral transduction and blasticidin selection. After selection, barcoded cell lines were expanded and subjected to quality control (Mycoplasma contamination test, an SNP test for confirming cell line identity, and barcode ID confirmation). Approved cell lines were then pooled (20–25 cell lines per pool) based on doubling time similarity and frozen in assay-ready vials.
RMC-6236 was added to 384-well plates at 8-point concentration with 3-fold dilutions in triplicate. These assay-ready plates were then seeded with the thawed cell line pools. Adherent cell pools were plated at 1,250 cells per well, whereas suspension and mixed adherent/suspension pools were plated at 2,000 cells per well. Treated cells were incubated for 5 days, and then lysed. Lysate plates were collapsed together prior to barcode amplification and detection.
Each cell line's unique barcode is located in the 3′UTR of the blasticidin-resistance gene and therefore is expressed as mRNA. Total mRNA was captured using magnetic particles that recognize polyA sequences. Captured mRNA was reverse-transcribed into cDNA and then the sequence containing the unique PRISM barcode was amplified using PCR. Finally, Luminex beads that recognize the specific barcode sequences in the cell set were hybridized to the PCR products and detected using a Luminex scanner which reports the signal as a median fluorescent intensity (MFI).
• Each detection well contained 10 control barcodes in increasing abundances as spike-in controls. For each plate, we first create a reference profile by calculating the median of the log2(MFI) values across negative control wells for each of these spiked-in barcodes. • For each well, a monotonic smooth p-spline was fitted to map the spike-in control levels to the reference profile. Next, we transform the log2(MFI) for each cell barcode using the fitted spline to allow well-to-well comparisons by correcting for amplification and detection artifacts. • Next, the separability between negative and positive control treatments was assessed. In particular, we calculated the error rate of the optimum simple threshold classifier between the control samples for each cell line and plate combination. The error rate is a measure of the overlap of the two control sets and was defined as error = (FP + FN)/n, where FP is false positives, FN is false negatives, and n is the total number of controls. A threshold was set between the distributions of positive and negative control log2(MFI) values (with everything below the threshold said to be positive and above said to be negative) such that this value is minimized. Additionally, we also calculated the dynamic range of each cell line. […] Additionally, any cell line that had less than 2 passing replicates was also omitted for the sake of reproducibility. Finally, we computed viability by normalizing with respect to the median negative control for each plate.
For every gene with nonsilent mutations in at least four cell lines, we compared the AUC values between cells with and without those mutations using a t test. This analysis was carried out for (i) the full data set; (ii) excluding cell lines with nonsilent KRAS mutations; and (iii) excluding cell lines that have either KRAS or NRAS nonsilent mutations.

CCn1c(-c2cc(N3CCN(C)CC3)cnc2[C@H](C)OC)c2c3cc(ccc31)-c1csc(n1)C[C@H](NC(=O)[C@H]1C[C@@H]1C)C(=O)N1CCC[C@H](N1)C(=O)OCC(C)(C)C2 [RMC-6236]
RMC-6236: RevMed PRISM: AUC (cell line G402_SOFT_TISSUE): 0.8685
RMC-6236: RevMed PRISM: AUC (cell line GI1_CENTRAL_NERVOUS_SYSTEM): 0.7189
RMC-6236: RevMed PRISM: AUC (cell line GP5D_LARGE_INTESTINE, KRAS p.G12D): 0.7332
RMC-6236: RevMed PRISM: AUC (cell line GRANTA519_HAEMATOPOIETIC_AND_LYMPHOID_TISSUE): 0.875
RMC-6236: RevMed PRISM: AUC (cell line H4_CENTRAL_NERVOUS_SYSTEM): 0.8759
RMC-6236: RevMed PRISM: AUC (cell line H103_UPPER_AERODIGESTIVE_TRACT): 0.6213
RMC-6236: RevMed PRISM: AUC (cell line HA1E_KIDNEY): 0.9707
RMC-6236: RevMed PRISM: AUC (cell line HCC78_LUNG): 0.6356
RMC-6236: RevMed PRISM: AUC (cell line HCT15_LARGE_INTESTINE, KRAS p.G13D): 0.8069
RMC-6236: RevMed PRISM: AUC (cell line HCT116_LARGE_INTESTINE, KRAS p.G13D): 0.7053
RMC-6236: RevMed PRISM: AUC (cell line HEC1A_ENDOMETRIUM, KRAS p.G12D): 0.5858
RMC-6236: RevMed PRISM: AUC (cell line HEC59_ENDOMETRIUM, NRAS p.A146V): 1
RMC-6236: RevMed PRISM: AUC (cell line HEC116_ENDOMETRIUM): 0.7363
RMC-6236: RevMed PRISM: AUC (cell line HEC151_ENDOMETRIUM, NRAS p.G12D): 0.6995
RMC-6236: RevMed PRISM: AUC (cell line HEC251_ENDOMETRIUM): 0.6732
RMC-6236: RevMed PRISM: AUC (cell line HEC265_ENDOMETRIUM): 0.8851
RMC-6236: RevMed PRISM: AUC (cell line HEPG2_LIVER, NRAS p.Q61L): 0.6146
RMC-6236: RevMed PRISM: AUC (cell line HKA1_SKIN, KRAS p.G12S): 0.8508
RMC-6236: RevMed PRISM: AUC (cell line HOS_BONE): 0.8239
RMC-6236: RevMed PRISM: AUC (cell line HOTHC_THYROID, NRAS p.Q61R): 0.8294
RMC-6236: RevMed PRISM: AUC (cell line HPBALL_HAEMATOPOIETIC_AND_LYMPHOID_TISSUE): 1
RMC-6236: RevMed PRISM: AUC (cell line HS611T_HAEMATOPOIETIC_AND_LYMPHOID_TISSUE): 1
RMC-6236: RevMed PRISM: AUC (cell line HS852T_SKIN, NRAS p.G12V): 0.9366
RMC-6236: RevMed PRISM: AUC (cell line HS939T_SKIN): 1
RMC-6236: RevMed PRISM: AUC (cell line HSC5_SKIN): 0.6392
RMC-6236: RevMed PRISM: AUC (cell line HT55_LARGE_INTESTINE): 0.7084
RMC-6236: RevMed PRISM: AUC (cell line HT1080_SOFT_TISSUE, NRAS p.Q61K): 0.2861
RMC-6236: RevMed PRISM: AUC (cell line HTMMT_ENDOMETRIUM): 0.8088
RMC-6236: RevMed PRISM: AUC (cell line HT_HAEMATOPOIETIC_AND_LYMPHOID_TISSUE): 0.8003
RMC-6236: RevMed PRISM: AUC (cell line HUH1_LIVER): 0.7293
RMC-6236: RevMed PRISM: AUC (cell line ICC4_BILIARY_TRACT): 0.862
RMC-6236: RevMed PRISM: AUC (cell line ICC9_BILIARY_TRACT, KRAS p.G12D): 0.4257
RMC-6236: RevMed PRISM: AUC (cell line ICC12_BILIARY_TRACT): 0.9188
RMC-6236: RevMed PRISM: AUC (cell line IHH4_THYROID): 0.9163
RMC-6236: RevMed PRISM: AUC (cell line J82_URINARY_TRACT): 0.9143
RMC-6236: RevMed PRISM: AUC (cell line JAR_PLACENTA): 0.8818
RMC-6236: RevMed PRISM: AUC (cell line JEG3_PLACENTA): 0.8862
RMC-6236: RevMed PRISM: AUC (cell line JHUEM2_ENDOMETRIUM): 0.9163
RMC-6236: RevMed PRISM: AUC (cell line JHUEM7_ENDOMETRIUM, NRAS p.E162Ter): 0.6285
RMC-6236: RevMed PRISM: AUC (cell line JL1_PLEURA): 0.7659
RMC-6236: RevMed PRISM: AUC (cell line JMURTK2_SOFT_TISSUE): 1
RMC-6236: RevMed PRISM: AUC (cell line JR_SOFT_TISSUE): 0.7752
RMC-6236: RevMed PRISM: AUC (cell line JURKAT_HAEMATOPOIETIC_AND_LYMPHOID_TISSUE): 1
RMC-6236: RevMed PRISM: AUC (cell line JURLMK1_HAEMATOPOIETIC_AND_LYMPHOID_TISSUE): 0.4938
RMC-6236: RevMed PRISM: AUC (cell line K029AX_SKIN): 0.8714
RMC-6236: RevMed PRISM: AUC (cell line K562_HAEMATOPOIETIC_AND_LYMPHOID_TISSUE): 0.5482
